IC50 is the fitted dose that halves viability relative to control wells, and lower means more sensitive; where the fit passes the top or lowest dose, that dose stands as a limit. AUC, from the same fit, is the share of area under the viability curve across the 256-fold dose range: 1 means no effect, lower means more sensitive. For part of these data: Where the top dose is marked as inferred, it comes from the curve model; the source does not state it. For part of these data: Drugs with an entry number were screened twice under separate entries, and the two screens often disagree.
Tests used:
Assay in all cases: Viability of human cancer cell lines after 72 h of drug (GDSC screen)
[1] = compound: O=C(NCCCNc1nc(Nc2cccc(NC(=O)N3CCCC3)c2)ncc1I)c1cccs1 [BX-795]; conditions: top dose 5 µM; top dose inferred
Method: (§1)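 Human cancer cell lines in 384-well plates, medium with 10% serum, drug for 72 h over a 256-fold dose range (nine 2-fold or five 4-fold steps up to the top dose). Adherent lines were fixed and stained with the nucleic acid dye Syto60, suspension lines read with resazurin; signal relative to control wells, capped at 0 and 100%. One two-parameter sigmoid per drug and line, fitted in a mixed model over all curves with the slope shared within a line.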

[2] = compound: CCn1c(-c2nonc2N)nc2c(C#CC(C)(C)O)ncc(OC[C@H]3CCCNC3)c21 [GSK690693]; conditions: top dose 10.24 µM; top dose inferred
Method: as §1

[3] = compound: COc1cc2c(NC3CCN(C(C)C)CC3)nc(C3CCCCC3)nc2cc1OCCCN1CCCC1 [UNC0638]
Method: as §1

[4] = compound: CC1=C(/C=C/C(C)=C/C=C/C(C)=C/C(=O)O)C(C)(C)CCC1 [Tretinoin]; conditions: top dose 10 µM; top dose inferred
Method: as §1

[5] = compound: Cc1cccc(-c2[nH]c(C(C)(C)C)nc2-c2ccc3c(c2)OCO3)n1 [SB-505124]; conditions: top dose 10 µM; top dose inferred
Method: as §1

[6] = compound: Oc1cccc(-c2nc(N3CCOCC3)c3oc4ncccc4c3n2)c1 [PI-103]; conditions: top dose 10.24 µM
Method: as §1

[7] = top dose 20 µM, screen: GDSC drug entry 1236, top dose inferred
[8] = top dose 40 µM, screen: GDSC drug entry 245

Row | Cell Line | AUC [1] | IC50 [1] [µM] | AUC [2] | IC50 [2] [µM] | AUC [3, 7] | IC50 [3, 7] [µM] | AUC [3, 8] | IC50 [3, 8] [µM] | AUC [4] | IC50 [4] [µM] | AUC [5] | IC50 [5] [µM] | AUC [6] | IC50 [6] [µM]
1 | RCC-FG2 (kidney, adherent) | 0.86 | > 5 | 0.882 | > 10.2 | 0.979 | > 20 | 0.889 | > 40 | 0.963 | > 10 | 0.908 | > 10 | 0.873 | > 10.2
2 | RCC-JF (kidney, adherent) | 0.756 | 1.91 | 0.909 | > 10.2 | 0.944 | > 20 | 0.89 | > 40 | 0.982 | > 10 | 0.921 | > 10 | 0.479 | 0.558
3 | RCC-JW (kidney, adherent) | 0.84 | 3.58 | 0.819 | 6.01 | 0.895 | > 20 | 0.888 | > 40 | 0.984 | > 10 | 0.978 | > 10 | 0.149 | 0.0503
4 | RCC-MF (kidney, adherent) | 0.891 | > 5 | 0.965 | > 10.2 | 0.948 | > 20 | 0.822 | 32.9 | 0.972 | > 10 | 0.923 | > 10 | 0.531 | 0.798
5 | RCM-1 (large intestine, adherent) | 0.968 | > 5 | 0.985 | > 10.2 | 0.866 | > 20 | 0.985 | > 40 | 0.944 | > 10 | 0.909 | > 10 | 0.985 | > 10.2
6 | RERF-LC-KJ (lung adenocarcinoma, adherent) | 0.874 | > 5 | 0.984 | > 10.2 | 0.813 | 11.2 | 0.833 | 26.9 | 0.985 | > 10 | 0.968 | > 10 | 0.774 | 4.13
7 | RERF-LC-MS (lung adenocarcinoma, adherent) | 0.872 | > 5 | 0.985 | > 10.2 | 0.945 | > 20 | 0.905 | > 40 | 0.944 | > 10 | 0.949 | > 10 | 0.706 | 2.47
8 | RERF-LC-Sq1 (lung squamous cell carcinoma, adherent) | 0.958 | > 5 | 0.917 | > 10.2 | 0.94 | > 20 | 0.703 | 12.3 | 0.866 | > 10 | 0.953 | > 10 | 0.744 | 4.58
9 | RH-41 (rhabdomyosarcoma, adherent) | 0.888 | 4.02 | 0.992 | > 10.2 | 0.797 | 7.73 | 0.895 | 34.7 | 0.691 | 1.94 | 0.847 | 5.65 | 0.934 | > 10.2
10 | RO82-W-1 (thyroid, adherent) | 0.846 | > 5 | 0.983 | > 10.2 | 0.764 | 9.21 | 0.92 | > 40 | 0.981 | > 10 | 0.98 | > 10 | 0.961 | > 10.2
11 | RPMI-2650 (head and neck, adherent) | 0.961 | > 5 | 0.889 | > 10.2 | 0.973 | > 20 | 0.862 | 38.8 | 0.985 | > 10 | 0.911 | > 10 | 0.63 | 1.5
12 | RPMI-7951 (melanoma, adherent) | 0.837 | 3.22 | 0.924 | > 10.2 | 0.863 | 16.5 | 0.703 | 9.12 | 0.946 | > 10 | 0.986 | > 10 | 0.603 | 1.22
13 | RT4 (bladder, adherent) | 0.982 | > 5 | 0.987 | > 10.2 | 0.986 | > 20 | 0.706 | 9.83 | 0.968 | > 10 | 0.986 | > 10 | 0.985 | > 10.2
14 | SAS (head and neck, adherent) | 0.98 | > 5 | 0.958 | > 10.2 | 0.951 | > 20 | 0.867 | > 40 | 0.934 | > 10 | 0.974 | > 10 | 0.567 | 0.999
15 | SBC-3 (small cell lung carcinoma, adherent) | 0.787 | 1.96 | 0.928 | > 10.2 | 0.936 | > 20 | 0.74 | 11.2 | 0.987 | > 10 | 0.984 | > 10 | 0.142 | 0.057
16 | SBC-5 (small cell lung carcinoma, adherent) | 0.908 | 4.66 | 0.993 | > 10.2 | 0.954 | > 20 | 0.897 | 33.3 | 0.979 | > 10 | 0.989 | > 10 | 0.993 | > 10.2
17 | SCC-9 (head and neck, adherent) | 0.859 | > 5 | 0.83 | 9.04 | 0.978 | > 20 | 0.758 | 17.6 | 0.978 | > 10 | 0.978 | > 10 | 0.309 | 0.16
18 | SCC-25 (head and neck, adherent) | 0.907 | > 5 | 0.925 | > 10.2 | 0.836 | 15.9 | 0.758 | 15.6 | 0.969 | > 10 | 0.981 | > 10 | 0.866 | > 10.2
19 | SF295 (glioma, adherent) | 0.827 | 3.38 | 0.955 | > 10.2 | 0.844 | 16 | 0.782 | 18.2 | 0.965 | > 10 | 0.927 | > 10 | 0.623 | 1.43
20 | SISO (cervix, adherent) | 0.885 | > 5 | 0.959 | > 10.2 | 0.693 | 4.22 | 0.7 | 8.89 | 0.972 | > 10 | 0.983 | > 10 | 0.71 | 2.44

Row | Cell Line | AUC [1] | IC50 [1] [µM] | AUC [2] | IC50 [2] [µM] | AUC [3, 7] | IC50 [3, 7] [µM] | AUC [3, 8] | IC50 [3, 8] [µM] | AUC [4] | IC50 [4] [µM] | AUC [5] | IC50 [5] [µM] | AUC [6] | IC50 [6] [µM]
21 | SJRH30 (rhabdomyosarcoma, adherent) | 0.865 | 4.68 | 0.63 | 1.48 | 0.743 | 6.36 | 0.819 | 23.7 | 0.986 | > 10 | 0.978 | > 10 | 0.433 | 0.418
22 | SK-GT-4 (oesophagus, adherent) | 0.85 | > 5 | 0.693 | 2.56 | 0.847 | > 20 | 0.753 | 16.3 | 0.952 | > 10 | 0.975 | > 10 | 0.721 | 3.21
23 | SK-HEP-1 (liver, adherent) | 0.838 | 3.07 | 0.989 | > 10.2 | 0.979 | > 20 | 0.825 | 21.9 | 0.972 | > 10 | 0.981 | > 10 | 0.978 | > 10.2
24 | SK-MEL-3 (melanoma, adherent) | 0.979 | > 5 | 0.916 | > 10.2 | 0.634 | 3.12 | 0.627 | 5.92 | 0.976 | > 10 | 0.893 | > 10 | 0.615 | 1.4
25 | SK-MEL-5 (melanoma, adherent) | 0.875 | > 5 | 0.979 | > 10.2 | 0.795 | 11.7 | 0.949 | > 40 | 0.98 | > 10 | 0.956 | > 10 | 0.666 | 2.06
26 | SK-MEL-30 (melanoma, adherent) | 0.97 | > 5 | 0.974 | > 10.2 | 0.732 | 5.97 | 0.527 | 2.97 | 0.977 | > 10 | 0.984 | > 10 | 0.527 | 0.762
27 | SK-MES-1 (lung squamous cell carcinoma, adherent) | 0.822 | 3.27 | 0.98 | > 10.2 | 0.873 | > 20 | 0.656 | 7.08 | 0.981 | > 10 | 0.959 | > 10 | 0.468 | 0.52
28 | SK-MG-1 (glioma, adherent) | 0.762 | 1.81 | 0.987 | > 10.2 | 0.798 | 9.61 | 0.754 | 13.6 | 0.987 | > 10 | 0.984 | > 10 | 0.987 | > 10.2
29 | SK-N-AS (neuroblastoma, adherent) | 0.864 | > 5 | 0.969 | > 10.2 | 0.956 | > 20 | 0.781 | 19.4 | 0.858 | > 10 | 0.982 | > 10 | 0.539 | 0.833
30 | SK-N-SH (neuroblastoma, adherent) | 0.792 | 2.24 | 0.975 | > 10.2 | 0.951 | > 20 | 0.895 | > 40 | 0.834 | 6.43 | 0.969 | > 10 | 0.787 | 4.42
31 | SK-OV-3 (ovary, adherent) | 0.919 | > 5 | 0.732 | 3.54 | 0.882 | > 20 | 0.638 | 6.67 | 0.97 | > 10 | 0.978 | > 10 | 0.388 | 0.292
32 | SKG-IIIa (cervix, adherent) | 0.901 | > 5 | 0.983 | > 10.2 | 0.98 | > 20 | 0.98 | > 40 | 0.968 | > 10 | 0.973 | > 10 | 0.983 | > 10.2
33 | SKN (uterus, adherent) | 0.684 | 1.14 | 0.957 | > 10.2 | 0.826 | 15.7 | 0.713 | 11.5 | 0.878 | > 10 | 0.94 | > 10 | 0.764 | 4.49
34 | SKN-3 (head and neck, adherent) | 0.887 | > 5 | 0.981 | > 10.2 | 0.776 | 9.45 | 0.822 | 29.1 | 0.884 | > 10 | 0.951 | > 10 | 0.899 | > 10.2
35 | SNG-M (endometrium, adherent) | 0.888 | > 5 | 0.743 | 3.11 | 0.763 | 7.06 | 0.986 | > 40 | 0.984 | > 10 | 0.981 | > 10 | 0.278 | 0.152
36 | SNU-61 (large intestine, adherent) | 0.979 | > 5 | 0.955 | > 10.2 | 0.966 | > 20 | 0.86 | > 40 | 0.982 | > 10 | 0.977 | > 10 | 0.913 | > 10.2
37 | SNU-81 (large intestine, adherent) | 0.865 | > 5 | 0.554 | 0.944 | 0.98 | > 20 | 0.835 | > 40 | 0.981 | > 10 | 0.98 | > 10 | 0.967 | > 10.2
38 | SNU-182 (liver, adherent) | 0.891 | > 5 | 0.986 | > 10.2 | 0.849 | 16 | 0.936 | > 40 | 0.986 | > 10 | 0.976 | > 10 | 0.459 | 0.493
39 | SNU-387 (liver, adherent) | 0.75 | 1.84 | 0.955 | > 10.2 | 0.773 | 8.92 | 0.638 | 6.35 | 0.978 | > 10 | 0.982 | > 10 | 0.983 | > 10.2

Reference: the supplement of paper PMC4967469
